In PubChem BioAssay AID488969 (Vanderbilt High Throughput Screening Facility, 2010) one finds z-score data, which are given here for 108 molecules.

Each structure is given as a SMILES string. Whole data set: some 110,000 compounds, median “z-score” near -0.1, cut for the highest 2% near 2. The list shows a part of the results. Activity calls are given as the source filed them.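 How the source made its calls: active means z-score in the third read window above 3 or below -3; inactive means the rest.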

In this assay the target is Metabotropic glutamate receptor 8 (Rattus norvegicus) (UniProt P70579). Put plainly: mGluR8 Gi/Go-coupled signaling modulation – cell-based, rat, thallium flux, HTS, primary screen (AID 488969). To be noted: HEK293 rat mGluR8, GIRK (G protein-gated inwardly rectifying potassium channel) thallium flux, FluoZin2; at 10 µM; stronger effect = higher value; submaximal glutamate (EC20) added with thallium.
Sequence of UniProt P70579 (P70579 whole entry, looked up): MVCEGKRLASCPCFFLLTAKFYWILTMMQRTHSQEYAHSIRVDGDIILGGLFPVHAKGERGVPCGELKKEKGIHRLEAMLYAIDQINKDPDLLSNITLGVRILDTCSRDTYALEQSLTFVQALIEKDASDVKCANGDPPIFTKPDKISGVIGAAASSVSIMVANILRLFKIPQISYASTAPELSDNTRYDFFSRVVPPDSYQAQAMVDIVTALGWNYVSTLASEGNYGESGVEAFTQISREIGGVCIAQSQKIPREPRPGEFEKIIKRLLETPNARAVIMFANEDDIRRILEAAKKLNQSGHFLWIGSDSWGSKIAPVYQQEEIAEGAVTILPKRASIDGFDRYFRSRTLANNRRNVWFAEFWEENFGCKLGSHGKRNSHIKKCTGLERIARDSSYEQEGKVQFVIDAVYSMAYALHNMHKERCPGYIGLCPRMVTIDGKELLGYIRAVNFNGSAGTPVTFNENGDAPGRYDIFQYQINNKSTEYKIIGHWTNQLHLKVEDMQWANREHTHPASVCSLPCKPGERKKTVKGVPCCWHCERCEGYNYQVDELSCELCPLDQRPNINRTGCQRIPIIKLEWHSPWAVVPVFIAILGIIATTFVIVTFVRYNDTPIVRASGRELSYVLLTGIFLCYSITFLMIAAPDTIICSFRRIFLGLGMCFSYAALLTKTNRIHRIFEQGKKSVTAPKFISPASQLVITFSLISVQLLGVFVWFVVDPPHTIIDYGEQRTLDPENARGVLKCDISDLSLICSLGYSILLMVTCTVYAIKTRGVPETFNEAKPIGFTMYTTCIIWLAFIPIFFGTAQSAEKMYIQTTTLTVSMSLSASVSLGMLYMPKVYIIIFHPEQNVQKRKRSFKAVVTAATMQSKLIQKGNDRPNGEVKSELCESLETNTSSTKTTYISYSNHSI
Take `Cc1occc1C(=O)N/N=C/C1=C(N2CCOCC2)C(=C\c2ccc(Cl)cc2Cl)/CC1`: the z-score came to 0.0547.

Molecule `COc1ccc(C(=O)Nc2ccc3nc(N4CCCCC4)cc(C)c3c2)cc1OC` gave a z-score of -0.383. Next, `O=[N+]([O-])c1cc(-c2nc(-c3ccncc3)no2)ccc1Cl`: 0.67; `CCn1c(NCc2cc(OC)ccc2OC)nc2ccccc21`: -0.0532.

Molecule `Cc1cc(C)nc(N2CCC(C(=O)NC3CCCCCC3)CC2)n1` displayed a z-score of 0.0648.

As to `CC(CNC(=O)C1CCCCC1C(=O)O)c1ccccc1` (stereo not drawn), the z-score was determined as 0.171. In the case of `CC1=C/C(=N\OS(=O)(=O)c2ccccc2)C=CC1=O`, the z-score was determined as 3. Next, `COc1ccc(NC(=O)C2(c3ccc(NC(=O)c4ccc(OC)c(OC)c4)cc3)CCCC2)cc1`: -0.26; `O=C(Cc1cccs1)Nc1ccc(N2CCOCC2)cc1`: 0.0497. Next, `COC(=O)c1sc(NC(=O)c2csc3c2CCCC3)nc1C`: 0.174. To `Cc1cc(C)c2nc(C(F)(F)F)nc(N3CCN(C(=O)c4ccco4)CC3)c2c1` belongs -0.263. Molecule `CCOC(=O)CSc1nnc(Cc2ccccc2)n1-c1ccc(C)cc1` gave a z-score of -0.0699. To `CCOc1ccc(Cc2c(Cl)nc(SC)nc2N(C)C)cc1` belongs -0.458; to `CCN1C(=O)CC(NNC(=O)c2ccc(Cl)cc2)C1=O` (stereo not drawn), 0.0625; to `Cc1ccc(/C=N/NC(=O)c2cccc(S(=O)(=O)Nc3ccccc3Cl)c2)o1`, -0.205. To `COc1ccc(OC)c(S(=O)(=O)N(C)CC(=O)Nc2ccc3c(c2)OCO3)c1` belongs 0.377; to `CCOC(=O)C(CCOc1cccc(CC)c1)C(=O)OCC`, -0.709; to `Cc1nnc(SCc2ccc(C(=O)O)cc2)s1`, -0.157.

For the molecule `CC(=O)c1n[nH]nc1Nc1nc(C)cc(C)n1`, the z-score was 0.00428. Molecule `Cc1ccc(S(=O)(=O)N2c3ccccc3OCC2C(C)(C)C)cc1` (stereo not drawn) showed a z-score of -0.00945. To `COc1ccc(C2C(C(=O)Nc3cccnc3)=C(C)Nc3nc(-c4ccco4)nn32)cc1` (stereo not drawn) belongs 0.0344. For the molecule `Nc1nonc1-c1noc(-c2ccc(Br)o2)n1`, the z-score was -0.0126. Next, `COc1cccc(/C=C/C(=O)c2ccc(NS(=O)(=O)c3ccc(C)cc3)cc2)c1`: -0.162; `COc1cccc(CNCCSc2nnnn2C)c1OC`: 0.709; `COC(=O)COc1ccc(-c2nn(C)c(=O)c3ccccc23)cc1`: -1.28.

As for `O=C(CN1C(=O)C2CC=CCC2C1=O)Nc1nnc(SCc2ccc(F)cc2)s1` (stereo not drawn), the z-score was -0.317.

On to `O=C(CN(Cc1ccccc1F)C(=O)Cn1nnc(-c2cccs2)n1)NC1CCCCC1`, for which the z-score turned out to be 0.115. With `C=CCOC(=O)/C(=C\C=C\c1ccccc1)NC(=O)c1ccccc1`, the z-score was -0.578. Next, `O=C(Nc1ccccc1)C1=C(O)CC(c2ccc(Cl)cc2)N2CCN=C12` (stereo not drawn): -0.724; `O=C(Nc1c(C(=O)c2ccccc2)oc2ccccc12)c1cc(-c2ccccc2O)n[nH]1`: 0.0207; `CCCCN(C(=O)CSc1nncn1-c1ccccc1)c1c(N)n(Cc2ccccc2)c(=O)[nH]c1=O`: -0.301. The molecule `O=C(Nc1nnc(C2CC2)s1)C1Cc2ccccc2CN1S(=O)(=O)c1cccs1` (stereo not drawn) registered a z-score of -1.65. As to `c1ccc(CSc2nnc(NC3=NCCCCC3)s2)cc1`, the z-score was -0.549. As to `O=C(NNC1=C(C(=O)C(F)(F)F)CCC1)c1ccc(Br)cc1`, the z-score came out at 1.93. `CC1CCC(NC(=O)CN2CCCN(Cc3ccc(F)cc3Cl)C2=O)CC1` (stereo not drawn) came in with a z-score of 0.115.

Take `O=C(CN1CCCc2ccccc21)N/N=C/c1ccc(O)cc1O`: the z-score came out at 0.247. Next, `COC(=O)c1cc([N+](=O)[O-])ccc1N1CCN(Cc2ccccc2)CC1`: -0.306; `O=C(NCC1CCCO1)C(c1cccnc1)N(C(=O)Cc1cccs1)c1cccnc1` (stereo not drawn): 0.0639. To `Cc1cc(C)nc(/N=C(\N)Nc2ccc(F)c([N+](=O)[O-])c2)n1` belongs -0.14; to `CC(OC(=O)C1CCCCC1)c1nc2ccccc2[nH]1` (stereo not drawn), 0.156; to `O=C(COc1ncnc2c(Cl)cc(Cl)cc12)NC1CCCCCC1`, -0.0836. To `CCN(CC)CCn1c2ccccc2c2nc(C)sc21` belongs 0.43; to `Cc1ccc(C)c(NC(=O)CSc2nnc(-c3n[nH]c4ccccc34)o2)c1`, -0.0139. For the molecule `Cc1nc2ccccc2c(=O)n1N`, the z-score turned out to be 0.0349. As to `CC1=C(C(=O)OCc2ccc3c(c2)OCO3)C(c2ccc(Cl)cc2)NC(=O)N1` (stereo not drawn), the z-score was 0.119. The molecule `CCCN1/C(=C2/SC(=S)N(CC)C2=O)C=Cc2ccccc21` registered a z-score of 1.17. To `O=C(CSc1nnc(NC(=O)C2CC2)s1)NCc1ccco1` belongs 0.00676.

On to `Cc1ccc(S(=O)(=O)NCc2c(-c3ccccc3)c3cc(Cl)ccc3[nH]c2=O)cc1`, for which the z-score was -0.178.

As for `CCc1c(C)nc(SCC(N)=O)c(C#N)c1C`, the z-score was -0.401.

As to `Cc1cc(Br)c(NC(=O)COC(=O)CSc2nnc(-c3ccc(Cl)cc3)o2)c(Br)c1`, the z-score is 1.18. To `Cc1ccc(CCNC(=O)C2CCC(CNc3c(N4CCCC4)c(=O)c3=O)CC2)cc1` (stereo not drawn) belongs -0.00435. To `COc1ccc(N(CC(=O)Nc2cccc(C)c2C)S(=O)(=O)c2c(C)n[nH]c2C)cc1` belongs -0.123; to `CN1/C(=C\C(=O)c2cccc(S(=O)(=O)N3CCCCC3)c2)C(C)(C)c2ccccc21`, -0.265. Next, `CCN(CC)c1ccc(NC(=O)COc2ccc(C)cc2)cc1`: 0.0573.

The molecule `Cc1ccc2cc(CN(CC3CCCO3)S(=O)(=O)c3ccc4c(c3)OCCO4)c(=O)[nH]c2c1C` (stereo not drawn) showed a z-score of -0.54. Molecule `O=C(CSCc1ccccc1)N1CCN(C(=O)c2ccco2)CC1` had a z-score of -0.152. In turn, `CC(C)C(NC(=O)C1CCCCC1)C(=O)NCc1ccccn1` (stereo not drawn) displayed a z-score of 0.22. Molecule `COc1ccc([N+](=O)[O-])cc1NC(=O)C(C)c1ccccc1` (stereo not drawn) registered a z-score of -0.84. Next, `CCSc1nc2ccccc2n1C(=O)c1ccc(S(=O)(=O)N2CCCCC2)cc1`: 0.0198; `O=C1C(Cl)=C(N2CCN(Cc3ccccc3)CC2)C(=O)N1Cc1ccccc1`: -0.226. Next, `COC(=O)c1ccc(COC(=O)c2ccc(S(=O)(=O)N3CCC(C)CC3)cc2)o1`: 0.0439. To `COc1ccc(C(=O)N2CC3(CC(c4ccc(Cl)cc4)=NO3)C[C@H]2C(=O)NCC(N)=O)cc1` (stereo partly drawn) belongs -0.0916.

`O=C(COC(=O)c1n[nH]c(=O)c2ccccc12)c1ccccc1`: the z-score is -0.19.

As to `COc1ccc(CCN(C)CCN2C(=O)c3ccccc3C2=O)cc1OC`, the z-score was 0.448. To `O=C(/C=C/c1ccc([N+](=O)[O-])cc1)NCCSCc1ccco1` belongs -0.283; to `CCN(CC)S(=O)(=O)c1cc(-c2nn(C)c(=O)c3ccccc23)ccc1C`, -0.365.

For `COc1cccc(CNc2nc3nc4c(c(=O)n3[nH]2)CCC4)c1`, the z-score is -0.379. To `O=C(Nc1ccccc1Cl)c1ccc(S(=O)(=O)N2CCOCC2)cc1` belongs -0.252.

The molecule `c1ccc(-c2nc3ccccn3c2NCc2ccc3c(c2)OCO3)cc1` yielded a z-score of -1.08. Next, `CCn1c(=O)n(CC)c2cc([N+](=O)[O-])ccc21`: -0.0668; `COc1ccccc1C(=O)Nc1cccc(SC)c1`: -0.103. On to `OCCN1CCN(CC(O)COCc2ccc3c(c2)OCO3)CC1` (stereo not drawn), for which the z-score came out at 0.118. To `COC(=O)c1ccc(C)c(NS(=O)(=O)c2ccc(OC)cc2)c1` belongs -0.353; to `O=CN1CC(=O)N(c2ccccc2)c2c([nH]c3ccccc23)C1`, 0.383. Next, `O=C(CSCc1ccco1)Nc1cc(C(F)(F)F)ccc1N1CCOCC1`: -0.112. Next, `CC(=O)Oc1ccc(NC(=O)C2CCCCC2)c(C(=O)O)c1`: -0.326.

In turn, `CCCC(=O)Nc1nc(-c2ccc(OC)cc2)cs1` displayed a z-score of 0.441. Next, `O=S(=O)(Nc1cccc2c1ccc1cccn12)c1cccs1`: -0.185.

For `CCOC(=O)CCc1n[nH]c(=O)[nH]c1=O`, the z-score was -1.42. To `CCOC(=O)Cn1nc(C)n(-c2ccc(C(C)(C)C)cc2)c1=O` belongs -0.122; to `COc1ccc(C(=O)Nc2ccccc2N2CCOCC2)cc1Br`, -1.44; to `Cc1cc2c(c(=O)o1)C(C13C=CC(CC1)C3)C(C#N)=C(N)O2` (stereo not drawn), 0.0723. Molecule `Cc1ccc2oc(-c3cccc(NC(=O)c4ccc(Br)o4)c3)nc2c1` returned a z-score of -0.833.

Molecule `CS(=O)(=O)N(Cc1ccccc1)c1ccc(C(=O)NN=C2CCCCCC2)cc1` came in with a z-score of 0.26. To `O=P(CCCCCCCCCP(=O)(c1ccccc1)c1ccccc1)(c1ccccc1)c1ccccc1` belongs active: -4.87.

In the case of `O=C(Nc1ccccc1C(=O)N1CCCCC1)c1cccc(S(=O)(=O)N2CCOCC2)c1`, the z-score came out at 0.694. To `O=C(Nc1ccc(F)cc1)N(Cc1nnc2n1CCCCC2)c1ccccc1` belongs -0.114. Next, `OCCNCCOc1ccccc1F`: -0.06; `COc1ccccc1CNS(=O)(=O)c1ccc(C)cc1`: -0.383; `O=C(N1CCOCC1)N1CCC(c2nc(-c3ccc(S(=O)(=O)N4CCOCC4)cc3)no2)CC1`: -0.193. Next, `O=C(CC(Nc1ccccc1)c1ccc(F)cc1)c1ccccc1` (stereo not drawn): -0.109. Turning to `CCCOC(=O)c1ccc(NC(=O)Oc2ccccc2)cc1`, the z-score amounted to 0.454. Next, `CCOC(=O)C1CCCN(C(=O)CC(c2ccccc2)c2ccccc2)C1` (stereo not drawn): -0.309. To `Cc1c(NC(=O)COC(=O)C(c2ccc(Cl)cc2)C(C)C)c(=O)n(-c2ccccc2)n1C` (stereo not drawn) belongs -0.457. As to `Cc1csc2cc(-c3cccc([N+](=O)[O-])c3)c(-c3cccc([N+](=O)[O-])c3)c[n+]12`, the z-score was found to be 0.524. To `COc1ccc(-c2noc(CCCOc3ccccc3)n2)cc1OC` belongs 0.0369; to `COc1ccc(-n2c(Cn3nc(C(F)(F)F)cc3C)n[nH]c2=S)cc1`, 0.507; to `COc1cccc2c(=O)n(CC(=O)Nc3ccc(F)cc3)ccc12`, 0.283. As to `Cn1c2ccccc2c2cc(C(=O)NNS(=O)(=O)c3ccc(F)cc3)sc21`, the z-score is active: 5.09.

`Cc1ccc(S(=O)(=O)N2CN(Cc3ccco3)c3nc4ccccc4nc32)cc1` gave a z-score of -0.462. To `COc1ccc(N2CCN(C(=O)C3=NNC(=O)CC3)CC2)cc1` belongs -0.292; to `COc1ccc2nc(NC3=NC(c4ccccc4)CC(=O)N3)nc(C)c2c1` (stereo not drawn), -0.201. Next, `CN(C)CCCNC(=O)/C(=N\O)c1ccccc1`: 0.1; `Cn1cccc1C(=O)NC(=O)COC(=O)c1ccc(O)cc1`: -0.111; `CCCOc1ccc(-c2nc(C#N)c(NCC3CCCO3)o2)cc1` (stereo not drawn): -0.765. In turn, `Cc1c(CCO)c(=O)n(-c2ccccc2)n1S(=O)(=O)c1ccc(Cl)cc1` returned a z-score of 0.251. To `CC(=O)C1=C(C)NC(SCC(=O)c2ccc(Cl)cc2)=C(C#N)C1c1ccco1` (stereo not drawn) belongs -0.504; to `O=[N+]([O-])c1cccc2ccc(/C=C/c3ccc(Cl)cc3)nc12`, -0.242.
